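Following 48 hours of exposure in 96-well plates, responses at five concentrations were used to interpolate endpoints linearly. At the GI50, growth is halved.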 The source made the active and inactive calls. Cut-off read from the data, not from the text of the source: active = GI50 up to about 1.1 µM and inactive = higher.
System: NCI-H322M
Test: inhibition of tumour cell growth, NCI panel, 48 h

Row | Structure (SMILES) | GI50
1 | [N-]=[N+]=Nc1c([N+](=O)[O-])c(Cl)nc2ccccc12 | inactive: 8.93 µM
2 | O=c1cc(N2CCOCC2)n2c(ccc3ccccc32)n1 | inactive: > 100 µM
3 | COC(=O)C1=C(O)c2ccc(Cl)cc2S(=O)(=O)N1C | inactive: > 100 µM
4 | C[n+]1c2ccccc2c(C(=O)Nc2ccc(S(=O)(=O)N=C(N)N)cc2)c2ccccc21 | inactive: > 100 µM
5 | O=[N+]([O-])c1ccc2c(c1)nc(Cc1ccccc1)n2C[C@@H]1CCCN2CCCCC12 (some centres undefined) | inactive: 20.8 µM
6 | C=C1CCCC2OC(OC)CCC12 (centres undefined) | inactive: > 100 µM
7 | COc1cccc(/N=N/C(=N\NC(=O)c2ccc(C)cc2)c2ccc(N(CCC#N)CCC#N)cc2C)c1 | inactive: > 100 µM
8 | N#Cc1c(NC(=S)Nc2ccc(Cl)cc2)sc2c1CCN(N1CCc3c(sc(NC(=S)Nc4ccc(Cl)cc4)c3C#N)C1)C2 | inactive: 17.3 µM
9 | CCCCNc1nc(NC2OCC(OC(C)=O)C(OC(C)=O)C2OC(C)=O)c(N=O)c(=O)n1C (centres undefined) | inactive: > 10 µM
10 | N=c1c2c(=S)n(-c3ccccc3)c(=S)n(-c3ccccc3)c2nc(SCCN2CCCC2)n1-c1ccccc1 | inactive: 11.7 µM
11 | CCCCCCCCCCCCCCCCNc1ccn(C2CC(OP(=O)(O)OCC3OC(n4cc(CC)c(=O)[nH]c4=O)CC3O)C(CO)O2)c(=O)n1 (centres undefined) | inactive: 45.2 µM
12 | Cc1cc(Cl)ccc1NC(=O)CC/C(CC(=O)C(C)C)=N\NC(=O)C[n+]1ccccc1 | inactive: > 100 µM
13 | S=C(N/N=C/c1ccccc1)NC1CC(c2ccccc2)Oc2ccccc21 (centres undefined) | inactive: 53.8 µM
14 | CC(/C=C/C(O)=C1/C(=O)CNC1=O)=C\[C@@H](C)[C@H]1O[C@@]2(C)O[C@H](C(=O)[C@@H]3O[C@@]32C)[C@@H]1C | inactive: 17.6 µM
15 | CCOC(=O)/C(O)=C1\C(=O)N(C)C(=O)C1c1cccc(OC)c1 (centres undefined) | inactive: > 92 µM
16 | CCOC(=O)c1cn2c(n1)sc1cc([N+](=O)[O-])ccc12 | inactive: > 100 µM
17 | CCCn1cc2c(SC)nc(SC)nc2n1 | inactive: > 100 µM
18 | CC(C)C/C=C/C1=NN(c2cccc(S(=O)(=O)O)c2)C2(C1)SCC(=O)N2c1nc2ccccc2s1 (centres undefined) | inactive: > 100 µM
19 | COc1cc(CCCl)c(CC2=NCCc3cc(OC)c(OC)cc32)cc1OC | inactive: 81.8 µM
20 | O=C(NCC(=O)N1CCCC1C(=O)OC(=O)C1CCCN1C(=O)CNC(=O)OCc1ccccc1)OCc1ccccc1 (centres undefined) | inactive: 23.9 µM
21 | CN(C)/N=C(/c1nc2ccc(Cl)cc2nc1O)C(O)c1ccc(C(O)/C(=N\N(C)C)c2nc3ccc(Cl)cc3nc2O)cc1 (centres undefined) | inactive: > 100 µM
22 | COC12OCCN(CCO)C1=CC(=O)C1(C)N=NC(C)C12 (centres undefined) | inactive: > 100 µM

Row | Structure (SMILES) | GI50
23 | O=[N+]([O-])c1ccccc1S(=O)(=O)c1cc(O)cc2c1NCCC2 | inactive: 17 µM
24 | COc1cc2c(cc1OC)C1Cc3ccccc3CCN1CC2 (centres undefined) | inactive: > 100 µM
25 | C[C@H](N[C@H]1CCC[C@]1(O)C#Cc1ccc2c(c1)OCO2)c1ccccc1 | inactive: > 25 µM
26 | O=C(NC(=O)c1ccccc1[N+](=O)[O-])Nc1ccc(Oc2ncc(Cl)cn2)c(C(F)(F)F)c1 | active: 0.0261 µM
27 | Cc1ccc2nc(NC(=O)/C(Cc3nc4ccc(Cl)cc4nc3O)=N\NC(C)(C)C)sc2c1 | inactive: > 100 µM
28 | CC1(C)CC(=O)c2c([nH]c(=S)c(C#N)c2-c2ccc(Br)cc2)C1 | inactive: 75.5 µM
29 | O=C1C(=O)N(c2cc(Cl)ccc2Cl)C(=O)C(=O)C1c1nc2ccccc2o1 | inactive: > 100 µM
30 | CCC1CC(C)=CCN1S(=O)(=O)c1ccc(C)cc1 (centres undefined) | inactive: 18.7 µM
31 | CC1=C/C(=N\NS(=O)(=O)c2ccc([N+](=O)[O-])cc2)CC(C)(C)C1 | inactive: > 100 µM
32 | O=C1NC(Cc2ccc(O)cc2)C(=O)NC1Cc1ccc(O)cc1 (centres undefined) | inactive: > 100 µM
33 | COc1ccc(-c2c(C#N)c(S)n(NS(=O)(=O)c3ccccc3)c(=O)c2C#N)cc1 | inactive: > 100 µM
34 | N#C/C(=C\c1ccc(F)cc1)c1nc(-c2cc3ccccc3oc2=O)cs1 | inactive: 56.1 µM
35 | O=C(O)CCSC(=O)Nc1ccccc1Cl | inactive: > 100 µM
36 | Cc1c(S(=O)(=O)N/C(N)=N/c2ccc(Cl)cc2)sc2ccc(Cl)cc12 | inactive: 18 µM
37 | O=C(/C=C/c1ccc(Cl)cc1)Oc1ccc(C=C2CCC/C(=C\c3ccc(OC(=O)/C=C/c4ccc(Cl)cc4)cc3)C2=O)cc1 | inactive: > 100 µM
38 | NC(=O)Nc1ccc(C(=O)NCCCNC(=O)c2ccc(NC(N)=O)cc2)cc1 | inactive: > 100 µM
39 | Nc1ncn([C@@H]2C=C(CO)C(O)C2O)c(=O)n1 (some centres undefined) | inactive: > 100 µM
40 | CN(C)/N=N/c1cccc(C(N)=O)c1 | inactive: > 100 µM
41 | COc1cc(CCc2ccc(OC(C)=O)cc2)cc(OC)c1OC | inactive: > 100 µM
42 | N#Cc1ccc(/C=[N+](/C=c2ccc(=C=[N-])cc2)N(CCO)C2=NCCN2)cc1 | inactive: > 100 µM
43 | CC(=O)O[C@H]1C[C@@H](O[C@H]2[C@@H](O)C[C@H](O[C@H]3[C@@H](O)C[C@H](O[C@H]4CC[C@@]5(C)[C@H](CC[C@@H]6[C@@H]5C[C@@H](O)[C@]5(C)[C@@H](C7=CC(=O)OC7)CC[C@]65O)C4)O[C@@H]3C)O[C@@H]2C)O[C@H](C)[C@H]1O.CC(=O)O[C@H]1[C@@H](O)C[C@@H](O[C@H]2[C@@H](O)C[C@H](O[C@H]3[C@@H](O)C[C@H](O[C@H]4CC[C@@]5(C)[C@H](CC[C@@H]6[C@@H]5C[C@@H](O)[C@]5(C)[C@@H](C7=CC(=O)OC7)CC[C@]65O)C4)O[C@@H]3C)O[C@@H]2C)O[C@@H]1C | active: 0.0293 µM
44 | O=C1/C(=C/c2ccc(O)cc2)CC/C1=C\c1ccc(O)cc1 | inactive: > 100 µM

Source: ChEMBL document CHEMBL1201862, “PubChem BioAssay data set” (2004)
